Out of some 310,000 compounds screened, about 14,000 (4.5%) showed an effect of 50% or more. The effect is printed as a negative number. Some of the results follow.
target: human ether-à-go-go-related gene (hERG) potassium channel (human, UniProt Q12809); assay: primary screen, population patch clamp on CHO cells stably expressing hERG
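Further: peak tail current of the secondary pulse compared with the same well before compound.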

Sequence of human ether-à-go-go-related gene (hERG) potassium channel (Q12809 whole entry, looked up): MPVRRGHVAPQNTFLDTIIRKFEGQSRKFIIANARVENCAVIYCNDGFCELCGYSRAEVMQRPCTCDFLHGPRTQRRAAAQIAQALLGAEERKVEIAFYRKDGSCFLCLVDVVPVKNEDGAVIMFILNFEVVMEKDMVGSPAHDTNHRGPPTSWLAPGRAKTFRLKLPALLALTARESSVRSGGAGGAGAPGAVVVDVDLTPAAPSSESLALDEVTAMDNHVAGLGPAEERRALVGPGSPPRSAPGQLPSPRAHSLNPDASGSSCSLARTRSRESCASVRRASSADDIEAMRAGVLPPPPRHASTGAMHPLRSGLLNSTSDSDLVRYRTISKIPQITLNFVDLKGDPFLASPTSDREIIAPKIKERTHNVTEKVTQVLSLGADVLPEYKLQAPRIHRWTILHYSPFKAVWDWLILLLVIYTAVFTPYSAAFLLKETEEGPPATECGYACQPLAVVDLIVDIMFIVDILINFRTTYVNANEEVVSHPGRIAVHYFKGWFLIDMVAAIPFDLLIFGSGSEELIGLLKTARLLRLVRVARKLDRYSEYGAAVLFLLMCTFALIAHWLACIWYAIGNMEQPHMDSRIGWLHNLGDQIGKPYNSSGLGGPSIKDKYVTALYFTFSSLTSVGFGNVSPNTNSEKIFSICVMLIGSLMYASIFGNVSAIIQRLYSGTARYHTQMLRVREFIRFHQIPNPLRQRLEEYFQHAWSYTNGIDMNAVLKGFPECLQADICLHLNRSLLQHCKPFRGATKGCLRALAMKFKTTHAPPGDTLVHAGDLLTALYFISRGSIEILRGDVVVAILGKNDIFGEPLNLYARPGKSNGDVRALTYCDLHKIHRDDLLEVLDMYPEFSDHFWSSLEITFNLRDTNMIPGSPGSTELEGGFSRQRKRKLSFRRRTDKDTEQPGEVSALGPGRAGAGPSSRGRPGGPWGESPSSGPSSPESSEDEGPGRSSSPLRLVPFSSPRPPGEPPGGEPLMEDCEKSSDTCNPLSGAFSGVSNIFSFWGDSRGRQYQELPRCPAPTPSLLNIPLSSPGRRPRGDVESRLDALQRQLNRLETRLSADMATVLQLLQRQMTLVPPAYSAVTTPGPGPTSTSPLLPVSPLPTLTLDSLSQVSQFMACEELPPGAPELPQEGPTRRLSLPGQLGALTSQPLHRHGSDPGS

Row | Compound | hERG current change (%, negative = inhibition) at 10uM [%]
1 | Brc1ccccc1-c1cnco1 | 13.7
2 | O=C1CSC(=O)N1CCOCCN1C(=O)CSC1=O | 7.16
3 | O=c1[nH]nc(SCCS(=O)(=O)c2ccc(F)cc2)n1-c1ccccc1C(F)(F)F | -6.83
4 | COCCNC(=O)CN(C(=O)CCC(=O)Nc1ccccn1)c1cc(C)ccc1C | -6.02
5 | CCC(C)NS(=O)(=O)c1ccc(S(=O)(=O)N(CC(=O)Nc2ccccc2)CC2CCCO2)cc1 (centres unmarked) | -3.29
6 | COc1ccc(S(=O)(=O)N2CCCCCC2)cc1C(=O)N(C)Cc1cccs1 | -40.5
7 | COC(=O)c1ccccc1NC(=O)Cn1nc2n(C)c3ccccc3n2c(=O)c1=O | -3.54
8 | NC(=O)c1cc(S(=O)(=O)NCCc2ccccc2)cs1 | 15.5
9 | Cc1ccc(NC(=O)C2CCCC2)cc1Cl | -2.92
10 | O=C(N/N=C/c1ccc(OCCCF)cc1)c1ccc(C(F)(F)F)cc1 | 15.2
11 | CCc1nnc(NS(=O)(=O)c2ccc(NC(=O)COc3ccc4ccccc4c3)cc2)s1 | 11
12 | CCCc1nc2ccccc2c(=O)n1-c1cccc(OC)c1 | 2.69
13 | CCc1ccccc1NC(=O)CSc1ccsc1[N+](=O)[O-] | 15.2
14 | Cc1ccc(Cn2c(=O)c3ccccc3n3nc(C)cc23)cc1 | 17.7
15 | Brc1nc(-c2ccccc2)nc(-c2ccccc2)c1Br | -5.38
16 | C=CCSc1nc2ccsc2c(=O)n1-c1ccccc1 | 13.3
17 | COc1ccc(-c2cc(-c3nnc(COC(=O)c4ccncc4)o3)c3ccccc3n2)cc1OC | 4.32
18 | COc1ccc(N(C)C(=O)c2sc(Cl)nc2C)cc1 | 6.04
19 | COc1ccc(S(=O)(=O)N(CC(=O)O)c2ccccc2)cc1 | 12.3
20 | Cc1ccc(C)c(S(=O)(=O)Nc2ccc3scnc3c2)c1 | 14.1
21 | Cc1ccc(S(=O)(=O)N2CCCCC2)cc1NC(=S)NC(=O)c1ccco1 | 8.18
22 | O=C(c1cccs1)N1CCN=C1SCc1ccccc1 | 7.77
23 | COc1ccc(C2C(C#N)=C(/N=C/N3CCN(C)CC3)OC3=C2C(=O)CC(C)(C)C3)cc1OC (centres unmarked) | 8.95

Row | Compound | hERG current change (%, negative = inhibition) at 10uM [%]
24 | NC(=O)CC1C(=O)N(c2ccccc2)C(=S)N1NC(=O)c1ccccc1 (centres unmarked) | 26.9
25 | COc1cc2c(cc1OC)CN(CC(=O)Nc1ccc(C)c(S(=O)(=O)N3CCOCC3)c1)CC2 | -14.9
26 | C/C(=N\Nc1ccc(Cl)cc1)c1ccccn1.Cl | -20.9
27 | COc1ccc(CNc2nnnn2C)c(OC)c1 | -1.37
28 | CCN(CC)C(=S)Nc1ccc(OC(F)F)cc1 | -28.6
29 | CCCCNC(=O)N(O)C1N(/N=C/c2ccccc2F)C(=S)SC1(C)C (centres unmarked) | 16.5
30 | C1CCN(CCCNC2C3CC4CC(C3)CC2C4)C1.Cl (centres unmarked) | 3.35
31 | Cc1ccc2c(Cl)cc(Cl)c(OCC(=O)N(C(C)C)C(C)C)c2n1 | -0.825
32 | COC(=O)c1sccc1NC(=O)CC1C(=O)NCCN1C(=O)c1ccccc1 (centres unmarked) | 10.2
33 | COCCCNC(NC(=O)c1ccc(Cl)cc1)C(Cl)(Cl)Cl (centres unmarked) | -9.55
34 | CCN1CCC2(CC1)NC(CO)(CO)CO2 | 9.44
35 | O=C(CNC(=O)c1ccccc1)OCC(=O)c1ccccc1Cl | 26.7
36 | C/C(=C\C(=O)c1ccccc1)Nc1ccc(Cl)c(Br)c1 | 7.41
37 | O=C1c2ccc(Cl)cc2S(=O)(=O)c2cccc(C(=O)N3CCN(c4ccc(Cl)cn4)CC3)c21 | -39.9
38 | CCOC(=O)C1C(c2ccc(C)o2)NC(=O)NC1(O)C(F)(F)F (centres unmarked) | 5.67
39 | CCc1ccccc1NC(=O)C1CCCN(c2ncccn2)C1 (centres unmarked) | 15.2
40 | Cc1ccc2nc(N3C(=O)C(O)=C(C(=O)c4ccco4)C3c3cccc(O)c3)sc2c1.O=C(O)C(=O)O (centres unmarked) | -0.0861
41 | COc1ccccc1CCNC(=O)CCCn1nc(C)c2c(C)n(-c3ccc(C)cc3)nc2c1=O | -16.6
42 | Cc1c(CC(=O)O)c(=O)oc2c(C)c3occ(-c4ccc(F)cc4)c3cc12 | 16.3
43 | Cc1csc(NC(=O)/C=C/c2ccc3c(c2)OCO3)n1 | 10
44 | O=C(CCCN=C1NS(=O)(=O)c2ccccc21)OCC(=O)c1ccccc1 | 4.47
45 | O=C(NCc1cccc(Br)c1)C1CC2Cn3c(nc4ccccc43)C2N1c1ccccc1 (centres unmarked) | -20.5
46 | Clc1ccc(SCCn2ccnc2)cc1 | -1.48

Row | Compound | hERG current change (%, negative = inhibition) at 10uM [%]
47 | Cc1ccccc1NC(=S)N(CCCN1CCOCC1)Cc1ccccn1 | -7.79
48 | Cc1ccc(Oc2cnc3ccccc3n2)cc1 | -13.7
49 | CCc1ccc(NC(=O)C2CCN(C(=O)[C@@H]3Cc4ccccc4CN3)CC2)cc1 | -59.5
50 | Cc1ccc(CCNC(=O)CS(=O)Cc2nc(-c3cccs3)oc2C)cc1 (centres unmarked) | -14.5
51 | O=C(N/N=C/c1ccco1)c1cccc(N2CCCC2=O)c1 | 10.3
52 | Cc1cccc(NC(=O)COc2ccc(Br)cc2C)n1 | 6.47
53 | COc1ccc(CN2CCc3cc(OC)c(OC)cc3C2)cc1O | -43.3
54 | O=C(Nc1ccc(-c2nc3ccccc3[nH]2)cc1)c1ccc(N2C(=O)CCC2=O)cc1 | 1.17
55 | NC(=O)Cn1cc(/C=N\NS(=O)(=O)c2ccccc2)c2ccccc21 | 22.3
56 | Cc1ccc(C2(C)NC(=O)N(CC(=O)Nc3ccccc3N3CCCCC3)C2=O)cc1 (centres unmarked) | -4.23
57 | O=C(NCCCn1ccnc1)C(=O)NCC(c1ccco1)N1CCN(c2ccc(F)cc2)CC1 (centres unmarked) | -11.7
58 | CC1(C)N=C(c2cccc(F)c2)C(=O)N1 | 0.697
59 | Cc1cccnc1NC(=O)C1CCN(S(=O)(=O)c2ccc3ccccc3c2)CC1 | 5.39
60 | O=C(c1cc([N+](=O)[O-])ccc1N1CCOCC1)N1CCCC1 | -3.68
61 | O=C1CCCc2nc3c(cc21)C(O)Oc1c-3ccc2ccccc12 (centres unmarked) | 17.7
62 | CCOc1cc(C(=O)N/N=C/c2ccoc2)cc(OCC)c1OCC | 5.67
63 | O=C(Nc1ccc2c(c1)OCO2)c1cccc2c1C(=O)N(C1CCCCC1)C2 | 21.1
64 | CCCC/C(C)=N/NC(=O)Nc1ccccc1 | -16.7
65 | CCOc1ccc(N(C)S(=O)(=O)c2cc(-c3cc(C)no3)ccc2OC)cc1 | -3.09
66 | Nc1ccccc1C(=O)NNc1ncc(C(F)(F)F)cc1Cl | -10.8
67 | CCOc1cccc(/C=C(/C#N)c2nc3ccccc3[nH]2)c1OCC(=O)O | 14.1
68 | COc1ccc(S(=O)(=O)NN=C2CCCCC2)cc1 | -3.91
69 | COc1cc(/C=N\NC(=O)CNC(=O)C2COc3ccccc3O2)ccc1O (centres unmarked) | -26.8

Row | Compound | hERG current change (%, negative = inhibition) at 10uM [%]
70 | CCCCCOc1ccc(C(O)C(CN2CCOCC2)c2ccccc2)cc1.Cl (centres unmarked) | 9.77
71 | COc1cc(C)nc(N2CCC(C(N)=O)CC2)n1 | -9.99
72 | O=C(NCc1ccccn1)/C(=N/O)c1ccccc1 | 12.7
73 | COc1cc(N2CCOCC2)ccc1/C=C1\C(=O)NC(=O)N(Cc2cccs2)C1=O | 11.4
74 | O=C(Nc1ccc2c(c1)CCC2)c1cccc(OC(F)F)c1 | -40.1
75 | O=C(NC(=S)Nc1ccc(O)cc1)c1ccccc1Cl | 13.9
76 | Cc1ccc(NC(=O)NC(=O)CSc2nnc(-c3ccc(Cl)cc3Cl)n2N)c(C)c1 | -6.38
77 | O=C1C2C(C(=O)N1c1nccs1)C1C=CC2C12CC2 (centres unmarked) | -8.95
78 | COc1ccc(/C=c2\s/c(=C/C(=O)c3ccc(C)cc3)[nH]c2=O)c(OC)c1 | 17.2
79 | Fc1cccc(Cl)c1COc1ccc(-c2nnco2)cc1 | 11.8
80 | CCC(C)(C(=O)NC1CCCCC1)N(Cc1cccs1)C(=O)Cc1cccs1 (centres unmarked) | -2.91
81 | CCn1c(SCC(=O)OC2CCCCC2)nnc1-c1ccncc1 | -13.6
82 | COc1cccc(NC(=O)CN(C)C(=O)CSc2nc3ccccc3s2)c1 | -30.3
83 | CC1CN(C(=O)CSc2nnc(-c3ccc(Cl)cc3)n2C)CC(C)O1 (centres unmarked) | -8.54
84 | Cc1c(-n2cc(C(=O)c3ccccc3O)cc(C#N)c2=O)c(=O)n(-c2ccccc2)n1C.Cl | -14.8
85 | CCCCn1c(N)c(N(CCOC)C(=O)CCS(=O)(=O)c2ccc(Cl)cc2)c(=O)[nH]c1=O | 23.2
86 | Cc1ccc(S(=O)(=O)Nc2ccccc2C(=O)NCc2cccnc2)cc1 | 4.79
87 | O=[N+]([O-])c1cc(C(F)(F)F)c(Cl)cc1N1CCN(CCO)CC1 | -39.2
88 | O=P(CN1CCN(c2ccccc2)CC1)(N1CCCCC1)N1CCCCC1 | -16.3
89 | COc1ccc(NC(=O)COC(=O)Cc2c(F)cccc2Cl)cc1OC | -0.828
